Data published in paper PMC7245567 (Journal of molecular biology, 2020).

Target: the molecule itself
Test: NMR 15N spin relaxation

B1: cHSP27, the isolated α-crystallin domain (ACD) of human HSP27 (HSPB1), […], with the C137S mutation (domain or fragment)
chain: not shown
In the case of B1, the “stoichiometry N” value is reported as 2.
